Assay results from publication PMC6193622.
These are yes or no findings as the source states them, for the method shown. For some of these results: Binding seen in cells or lysates may run through a third protein. Some binding calls cover weakened binding; strength is not graded here. For some of these results: Tags and fused reporters may be left off the sequences shown. Values belong to the binder of their own block, whether it stands above or below them.

By UniProt entry, the sequences of proteins in these tests, tags left out.
UniProt Q9BXW9: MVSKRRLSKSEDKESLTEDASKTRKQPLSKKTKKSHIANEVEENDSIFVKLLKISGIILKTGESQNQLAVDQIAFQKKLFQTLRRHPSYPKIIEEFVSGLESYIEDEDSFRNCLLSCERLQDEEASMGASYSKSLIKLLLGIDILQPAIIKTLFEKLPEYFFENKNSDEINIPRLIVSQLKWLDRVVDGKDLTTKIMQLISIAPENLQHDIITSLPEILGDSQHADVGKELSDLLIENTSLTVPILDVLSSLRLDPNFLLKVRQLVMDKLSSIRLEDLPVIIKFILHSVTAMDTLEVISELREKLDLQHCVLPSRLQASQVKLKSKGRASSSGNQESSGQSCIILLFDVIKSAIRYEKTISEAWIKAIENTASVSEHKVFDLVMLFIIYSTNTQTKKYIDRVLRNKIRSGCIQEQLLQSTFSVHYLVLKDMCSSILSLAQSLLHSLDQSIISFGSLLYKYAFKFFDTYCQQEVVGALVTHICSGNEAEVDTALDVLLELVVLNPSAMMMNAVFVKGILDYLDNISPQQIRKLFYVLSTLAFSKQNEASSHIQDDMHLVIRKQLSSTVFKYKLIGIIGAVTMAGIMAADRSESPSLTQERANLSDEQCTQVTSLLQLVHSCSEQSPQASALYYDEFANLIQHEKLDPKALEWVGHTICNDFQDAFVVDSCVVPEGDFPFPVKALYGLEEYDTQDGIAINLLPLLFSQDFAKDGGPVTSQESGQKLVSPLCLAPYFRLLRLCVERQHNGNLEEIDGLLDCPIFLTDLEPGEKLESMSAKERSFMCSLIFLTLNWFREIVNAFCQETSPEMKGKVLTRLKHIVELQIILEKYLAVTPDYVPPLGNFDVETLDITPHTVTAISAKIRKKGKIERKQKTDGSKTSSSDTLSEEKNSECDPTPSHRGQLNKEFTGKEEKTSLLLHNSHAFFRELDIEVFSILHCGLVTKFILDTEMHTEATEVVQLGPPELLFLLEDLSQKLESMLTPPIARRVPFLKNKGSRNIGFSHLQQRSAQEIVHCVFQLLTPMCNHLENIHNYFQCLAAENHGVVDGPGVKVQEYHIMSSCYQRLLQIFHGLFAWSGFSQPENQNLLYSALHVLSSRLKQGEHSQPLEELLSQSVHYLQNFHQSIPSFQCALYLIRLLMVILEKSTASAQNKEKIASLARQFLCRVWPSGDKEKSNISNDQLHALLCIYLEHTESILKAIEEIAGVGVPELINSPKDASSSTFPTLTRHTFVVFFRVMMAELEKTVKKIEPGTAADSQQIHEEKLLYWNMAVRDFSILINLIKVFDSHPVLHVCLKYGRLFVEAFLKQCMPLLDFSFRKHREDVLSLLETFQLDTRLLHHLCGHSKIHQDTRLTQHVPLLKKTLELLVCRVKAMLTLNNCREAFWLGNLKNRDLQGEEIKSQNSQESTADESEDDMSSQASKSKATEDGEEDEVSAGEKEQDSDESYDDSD

Columns and labels:
[1] = target: T1, Flag-HA-UHRF1 expressed in HeLa cells (human) (UniProt Q96T88); assay: co-IP; Flag-HA-UHRF1 or Flag-HA-UHRF2 expressed in HeLa cells, immunoprecipitated from nuclear extracts with anti-Flag antibodies after TMP/UVA treatment; blots with anti-UHRF2 and anti-UHRF1
T1 sequence: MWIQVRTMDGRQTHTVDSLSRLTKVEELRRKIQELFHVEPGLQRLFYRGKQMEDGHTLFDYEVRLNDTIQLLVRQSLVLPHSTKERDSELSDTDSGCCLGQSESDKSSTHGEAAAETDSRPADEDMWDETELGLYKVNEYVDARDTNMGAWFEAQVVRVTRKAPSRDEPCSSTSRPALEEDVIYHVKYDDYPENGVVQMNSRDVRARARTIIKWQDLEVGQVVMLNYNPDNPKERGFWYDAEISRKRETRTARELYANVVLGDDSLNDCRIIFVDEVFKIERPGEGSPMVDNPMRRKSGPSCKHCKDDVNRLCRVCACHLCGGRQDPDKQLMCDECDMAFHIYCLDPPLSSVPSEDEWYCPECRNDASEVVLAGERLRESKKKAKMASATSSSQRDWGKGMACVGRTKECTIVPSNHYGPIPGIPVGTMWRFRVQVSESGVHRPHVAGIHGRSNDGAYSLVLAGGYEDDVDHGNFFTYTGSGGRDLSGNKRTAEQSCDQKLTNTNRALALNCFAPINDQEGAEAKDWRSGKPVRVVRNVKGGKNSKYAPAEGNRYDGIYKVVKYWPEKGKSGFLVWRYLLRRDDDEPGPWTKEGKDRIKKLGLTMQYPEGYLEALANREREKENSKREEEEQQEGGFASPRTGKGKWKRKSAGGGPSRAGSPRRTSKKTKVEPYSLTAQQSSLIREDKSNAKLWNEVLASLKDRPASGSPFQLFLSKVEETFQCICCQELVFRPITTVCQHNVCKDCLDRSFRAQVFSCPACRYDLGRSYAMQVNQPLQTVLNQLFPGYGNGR

[2] = target: Flag-HA-FANCD2 purified from Sf9 cells (human) (UniProt Q9BXW9); assay: co-IP; in vitro binding assay: 1μg of each protein with 10μg BSA in 20mM Tris-HCl pH 8.0, 150mM KCl, 10% glycerol, 2mM β-ME, 10μl, 37°C 1h; HA-FANCD2 immunoprecipitated on protein A sepharose with anti-HA IgG at 4°C, washed with 0.1% Tween-20, eluted with HA peptide; immunoblotting; both purified
[3] = target: HA-FANCD2 (unmodified) purified from HeLa cells (human) (UniProt Q9BXW9); assay: as above
[4] = target: T2, Flag-HA-UHRF2 expressed in HeLa cells (human) (UniProt Q96PU4); assay: co-IP; Flag-HA-UHRF1 or Flag-HA-UHRF2 expressed in HeLa cells, immunoprecipitated from nuclear extracts with anti-Flag antibodies after TMP/UVA treatment; blots with anti-UHRF2 and anti-UHRF1
T2 sequence: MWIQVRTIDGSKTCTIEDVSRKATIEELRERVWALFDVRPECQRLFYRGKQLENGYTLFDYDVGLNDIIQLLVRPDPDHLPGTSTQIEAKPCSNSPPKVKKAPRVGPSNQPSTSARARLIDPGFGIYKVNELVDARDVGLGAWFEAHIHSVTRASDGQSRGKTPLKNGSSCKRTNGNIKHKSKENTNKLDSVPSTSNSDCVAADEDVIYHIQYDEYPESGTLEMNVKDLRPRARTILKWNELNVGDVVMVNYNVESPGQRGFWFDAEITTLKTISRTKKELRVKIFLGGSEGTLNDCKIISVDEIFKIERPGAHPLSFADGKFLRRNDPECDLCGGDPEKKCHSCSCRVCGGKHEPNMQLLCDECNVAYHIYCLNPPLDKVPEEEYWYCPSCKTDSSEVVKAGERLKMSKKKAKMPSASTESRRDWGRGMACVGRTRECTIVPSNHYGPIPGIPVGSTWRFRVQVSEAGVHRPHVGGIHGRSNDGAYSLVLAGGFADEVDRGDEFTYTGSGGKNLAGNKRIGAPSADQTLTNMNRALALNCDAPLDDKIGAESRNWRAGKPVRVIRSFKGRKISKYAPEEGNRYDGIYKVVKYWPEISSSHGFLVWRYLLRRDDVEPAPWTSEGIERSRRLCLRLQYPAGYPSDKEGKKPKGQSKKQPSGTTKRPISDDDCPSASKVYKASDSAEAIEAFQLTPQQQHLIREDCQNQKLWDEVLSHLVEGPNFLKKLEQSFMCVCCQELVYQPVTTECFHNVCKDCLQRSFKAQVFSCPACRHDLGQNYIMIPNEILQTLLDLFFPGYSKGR

[5] = target: Flag-FANCD2 expressed in HeLaS3 cells depleted of endogenous FANCD2 (human) (UniProt Q9BXW9); assay: co-IP; cells treated with TMP/UVA, 1 hour recovery; lysis with Benzonase and the cross-linker DSP (quenched with Tris), extraction in 300mM KCl; M2 anti-Flag agarose, elution with Flag peptide; immunoblotting
[6] = target: Flag-HA-FANCD2 purified from Sf9 cells (human) (UniProt Q9BXW9); assay: SEC; FANCD2 alone, UHRF1 alone, or the two incubated together in vitro; Superdex 200 5/150 GL column; both purified

B2: Flag-UHRF1 with the SRA domain deleted (protein, UniProt Q96T88-2)
chain: MGVFAVPPLSSDTMWIQVRTMDGRQTHTVDSLSRLTKVEELRRKIQELFHVEPGLQRLFYRGKQMEDGHTLFDYEVRLNDTIQLLVRQSLVLPHSTKERDSELSDTDSGCCLGQSESDKSSTHGEAAAETDSRPADEDMWDETELGLYKVNEYVDARDTNMGAWFEAQVVRVTRKAPSRDEPCSSTSRPALEEDVIYHVKYDDYPENGVVQMNSRDVRARARTIIKWQDLEVGQVVMLNYNPDNPKERGFWYDAEISRKRETRTARELYANVVLGDDSLNDCRIIFVDEVFKIERPGEGSPMVDNPMRRKSGPSCKHCKDDVNRLCRVCACHLCGGRQDPDKQLMCDECDMAFHIYCLDPPLSSVPSEDEWYCPECRNDASEVVLAGERLRESKKKAKMASATSSSQRDWGKGMACVGRTKECTIVREREKENSKREEEEQQEGGFASPRTGKGKWKRKSAGGGPSRAGSPRRTSKKTKVEPYSLTAQQSSLIREDKSNAKLWNEVLASLKDRPASGSPFQLFLSKVEETFQCICCQELVFRPITTVCQHNVCKDCLDRSFRAQVFSCPACRYDLGRSYAMQVNQPLQTVLNQLFPGYGNGR
binding [2]: no binding (tested: 1μg of each protein in 10μl)

B3: 6xHis-UHRF1 purified from Sf9 cells (protein, UniProt Q96T88 1-793)
chain: T1 sequence
binding [3]: binds

B4: endogenous UHRF1 (HeLa) (protein, UniProt Q96T88 1-793)
chain: T1 sequence
binding [4]: binds
binding [5]: binds

B6: Strep-6xHis-Tev-UHRF1 purified from Sf9 cells (protein, UniProt Q96T88 1-793)
chain: T1 sequence
binding [2]: binds

Continued, values first:

binding [1]: binds
B1: endogenous UHRF2 (HeLa) (protein, UniProt Q96PU4 1-802)
chain: T2 sequence

binding [6]: binds
B5: recombinant UHRF1 purified from Sf9 cells (gel filtration, tag not stated) (protein, UniProt Q96T88 1-793)
chain: T1 sequence
